Results published in a compilation of properties of binary mixtures (doi:10.1016/j.jct.2017.01.014).
Some of these densities may be calculated back from excess volumes.

Assay: xn = mol fraction of the nth substance listed
Details: 100 kPa

CCCC[n+]1ccn(C)c1.O=S(=O)([N-]S(=O)(=O)C(F)(F)F)C(F)(F)F + C=CN1CCCC1=O
x2 = 0
Details | mass density [kg/m3]
298.15 K | 1433.7
303.15 K | 1429
308.15 K | 1424.2
313.15 K | 1419.4
318.15 K | 1414.6
323.15 K | 1409.9

C=CN1CCCC1=O + CCCC[n+]1ccn(C)c1.O=S(=O)([N-]S(=O)(=O)C(F)(F)F)C(F)(F)F
mass density [kg/m3]
Details | x1 = 0.1377 | x1 = 0.2099 | x1 = 0.3148 | x1 = 0.4117 | x1 = 0.5061 | x1 = 0.6078 | x1 = 0.7032 | x1 = 0.79 | x1 = 0.8989 | x1 = 1
298.15 K | 1412.3 | 1399.2 | 1377.7 | 1354.2 | 1327.2 | 1292.1 | 1251.6 | 1206.2 | 1132.7 | –
303.15 K | 1407.5 | 1394.5 | 1373 | 1349.5 | 1322.5 | 1287.4 | 1247 | 1201.6 | 1128.2 | 1035
308.15 K | 1402.8 | – | – | 1344.8 | 1317.8 | 1282.7 | 1242.3 | 1197 | 1123.6 | 1030.5
313.15 K | 1398 | – | 1363.5 | 1340 | – | 1278 | 1237.7 | 1192.4 | 1119.1 | 1026.1
318.15 K | – | 1380.3 | – | 1335.3 | 1308.4 | 1273.4 | 1233 | 1187.8 | 1114.5 | –
323.15 K | 1388.5 | – | – | 1330.6 | 1303.7 | 1268.7 | 1228.4 | 1183.2 | 1110 | 1017.3
